# Some of the results follow.
# B1: ENSG00000124766:be:win_1651|3pUTR|ENSG00000124766|bound_else_gene|NA|bound_elsewhere_windowed (ssRNA)
# RNA: GGGAGUUCUACAGUCCGACGAUCUCUGCCCAGCCGGAGGGACGCGGAGGAGGAAGAGGGUAGACAGGGGCGACCUGUGAUUGUUGUUAUUGAUGUUGUUGUUGAUGGCAAAAAAAAAAAAGCGACUUCGAGUUUGCUCCCCUUCAACAGAGGAUUGAGCAUCA
# B2: chr2:210612109:210612263:+|CDS|ENSG00000021826|unk|total|mutant (ssRNA)
# RNA: GGGAGUUCUACAGUCCGACGAUCUAUUGGUCGUACCUUUGAGGAGAGUUUCCAGAAAGCUUUACGGAUGUGCCACCCAUCUACCGAAGGUUUCACUCCCCGUCUCCCAAUGAACAAAGAAUGGCCAUCUAAUUCCGAUCUCCGCAACAGAGGAUUGAGCAUCA
# B3: ENSG00000198589:be:win_7051|CDS|ENSG00000198589|bound_else_gene|NA|bound_elsewhere_windowed (ssRNA)
# RNA: GGGAGUUCUACAGUCCGACGAUCCCUGAAUUUUAUUAUCUCCCUGAGAUGUUUGUCAACUUCAAUAAUUAUAAUCUUGGAGUGAUGGAUGAUGGGACAGUAGUGUCUGAUGUCGAACUUCCUCCUUGGGCCAAAACCUCAGAACAACAGAGGAUUGAGCAUCA
# B4: chr5:83943476:83943577:-|CDS|ENSG00000164176|msi1|total|mutant (ssRNA)
# RNA: GGGAGUUCUACAGUCCGACGAUCAUAAAAAUAAUUUCAAAGAAAGAAGGCUGUGUGACUGACAUUUUUCUGCUCUUCUUUAUCCGGUUUUCCAGGGAAAUUUUGACAAUGACACUCACAGAAAAAAUGUCAUCGACCCUCCCACAACAGAGGAUUGAGCAUCA
# B5: chr7:80742675:80742739:-|3pUTR|ENSG00000075223|msi1_unk|total|mutant (ssRNA)
# RNA: GGGAGUUCUACAGUCCGACGAUCGCCGCUUGACAAUUCAGUGACUUAAUAUCUAUUCCAUUUGUAUUGUACAUAAAAUUUUCCCGAAAUACACUUUUUUCCAAAGUGUAAGUUUGUGAACCGAUUUCCGCAUGAUGAAACUGUCAACAGAGGAUUGAGCAUCA
# B6: chr9:5123879:5124511:-|three_prime_utr|ENSG00000120210|control|control|control (ssRNA)
# RNA: GGGAGUUCUACAGUCCGACGAUCCUGGUAAAUUGGAUUGCCAUAUGCAGAAGAAUGAAACUGGACCCAUAUUUAUCACCAUAUAGAAAAAUUAACUCGAUCGAUUACAGACUUAAAUGUAAGAUCUGAAACUAGAAAAAUACUCAACAGAGGAUUGAGCAUCA
# B7: chr9:125236489:125236593:-|3pUTR|ENSG00000044574|msi1_unk|total|mutant (ssRNA)
# RNA: GGGAGUUCUACAGUCCGACGAUCUGCCGACACUGAUCUGCCCGUGCUGUAAUAUUGUAAAUACUGGACUCAGGAACUUUUGUCCGGAAAAAAUUGAAAGAACUUAAGUCUCGAAUGUAAUUGGAAUCUUCACCUCAGAGUGGACAACAGAGGAUUGAGCAUCA
# B8: chr2:135724104:135724205:+|CDS|ENSG00000048991|msi1|FALSE|unique (ssRNA)
# RNA: GGGAGUUCUACAGUCCGACGAUCCAACACUGCCAACCCUGAACGCUCUAAACCCAGUGACUUGGCCUCCACCUACACCGUCUUAGCCACAUUCCCCUCCAUUUCAGCUGCACAGAAUGCACUGAAGAAACAAAUUAACUCAGUCAACAGAGGAUUGAGCAUCA
# B9: chr4:1716041:1716142:-|3pUTR|ENSG00000168936|msi1|FALSE|unique (ssRNA)
# RNA: GGGAGUUCUACAGUCCGACGAUCAGGCUUCCUAGAGCGCUCAGCAGGUGAAGGCAGCAGGGGCCAUGGCCGGGAGCCAGGCCUAGCUUUGAACUGAGUUUCAAGGGCUGCCAAAGAGGGGCAGUGGGUUGGGGUUGUUUUUACCAACAGAGGAUUGAGCAUCA
# B10: chr12:106067485:106067586:-|CDS|ENSG00000074590|msi1|total|mutant (ssRNA)
# RNA: GGGAGUUCUACAGUCCGACGAUCCCUGAAGAAGCGAAGCAACAGCGAGCAUCGCUCUCACAGCACUGGCUUCAUUGAAGGUGCCGUUGGUCCUGCCUUACCCUCUACUUUCAAGAUGGAGCAGGACUUGUGCAGGACUGGCGUCAACAGAGGAUUGAGCAUCA
# B11: chr3:49887309:49887562:-|CDS|ENSG00000164078|control|control|control (ssRNA)
# RNA: GGGAGUUCUACAGUCCGACGAUCGGAGGCAGACCCAGCAGUGCGACCCACCUUCAGAGUACUAGUGGGGGAGGUGGAGCAGAUAGUGUCUGCACUGCUUGGGGACCAUUAUGUGCAGCUGCCAGCAACCUACAUGAACUUGGGCAACAGAGGAUUGAGCAUCA
# B12: chr2:216674409:216674600:-|3pUTR|ENSG00000115461|msi1|FALSE|unique (ssRNA)
# RNA: GGGAGUUCUACAGUCCGACGAUCUCAUGGCAUGACACAGCGGAGACCGCCUCCAACAACGAAUUUGGGGCUACGAAGAGGAAUAGCGAAAAAGCAAAUCUGUUUCAACUGAUGGGAACCCUAUAGCUAUAGAACUUGGGGGCUCAACAGAGGAUUGAGCAUCA
# B13: chr12:125025615:125025697:+|3pUTR|ENSG00000184992|msi1_unk|FALSE|overlapping (ssRNA)
# RNA: GGGAGUUCUACAGUCCGACGAUCGGACACAUUCCCAGAAGAGCGGAAAGAUCAUUGACGUGGAACUACACACGAAGUGUAAUUAGUGGGGGAAAAAAUAUUUUUUAAACAAAGGAUAUAACCAUAUUUAGUUGUACAGUAAGACAACAGAGGAUUGAGCAUCA
# B14: chr17:63766011:63766126:-|CDS|ENSG00000108588|unk|total|mutant (ssRNA)
# RNA: GGGAGUUCUACAGUCCGACGAUCGGUGUUUGGGAGUGUCUCUGAAGCCAAGUUUGAUGAUUUUGAGGAUGAGGAGGACACCGCCGAGUAUGAUGAUAAUGACUUCGCUGAAUUUGAGGAUGUCAUGGAAGACUCUGUUACUGACAACAGAGGAUUGAGCAUCA
# B15: chr20:58360308:58360409:+|3pUTR|ENSG00000124209|msi1|total|mutant (ssRNA)
# RNA: GGGAGUUCUACAGUCCGACGAUCCAUUGAACAUGUCCGCCCCGGAUACGUACAGUAAAUUAACAAUGACCGCAGCAGAUGCCCCGCUCAUCCUGGGUUUGCUUCUGACCUUGUCAUGUGUGUGCCACCAAACACGUUAUUGGCCAACAGAGGAUUGAGCAUCA
# B16: chr14:49622334:49622435:+|CDS|ENSG00000168282|unk|FALSE|unique (ssRNA)
# RNA: GGGAGUUCUACAGUCCGACGAUCCAAUACUUGACUGUAUCUUGUCUUCCAAAAUUCUGGAAAGUGCUGGUUCCUCAAAUUCCUAGGAUCUUUCAUGCUGGAGACUGUGGUAUGCAUCACAAGAAAACCUGUAGACCAUCCACUCAACAGAGGAUUGAGCAUCA
# B17: chr9:33053202:33053303:-|CDS|ENSG00000122692|msi1|FALSE|unique (ssRNA)
# RNA: GGGAGUUCUACAGUCCGACGAUCCCUAAAACUUUAGAAAUUUUUAUACCUAAAAAAGGUUUAUAACUUAAAUUUCUGUGUGGUAGAUCUGGAAUAUGAAGACCACAGAAUGUUCAAAUACCUUUAAAUCCCUGGGCAGCACCGCAACAGAGGAUUGAGCAUCA
# B18: chr16:50751694:50751795:+|CDS|ENSG00000083799|unk|total|mutant (ssRNA)
# RNA: GGGAGUUCUACAGUCCGACGAUCGCUUUUUCAGUGUGAUGAAGAUUGUGGCGUGUUUGUUGCAUUGGACAAGCCCGAACUCACCGAAGAUGAUGACACUGCAUUGGAAAGUGAUUACGCAGGUCCUGGGGACACAAUGCAGGUCAACAGAGGAUUGAGCAUCA
# B19: chr2:190659421:190659522:+|CDS|ENSG00000138386|unk|total|mutant (ssRNA)
# RNA: GGGAGUUCUACAGUCCGACGAUCAGAGACUGGGUCACAAACCCUGGGCUUUUCAAUCAGCCACUGACUUCCCUUCCUGUCAGCCGCAUACCCAUCUAUAAAUUACCAGAGGGAUCACCAACAUGGCUGGGAAUAUCCUGCAGUCAACAGAGGAUUGAGCAUCA
# B20: chr1:17067933:17068034:-|3pUTR|ENSG00000117115|msi1|FALSE|unique (ssRNA)
# RNA: GGGAGUUCUACAGUCCGACGAUCACAUAAGGACCCUGGCCUACCCUCCAGCCCAACAGCCAGUUCUGGGUCAGCUGCCAACUUAGGGGUGGUUUGAUUAUCCCAUUGAAAUUCACCAGUGCCUUUGCCAAAGACCCUCUCAUUCAACAGAGGAUUGAGCAUCA
# B21: chr15:85581792:85581893:+|CDS|ENSG00000170776|unk|FALSE|bound_elsewhere (ssRNA)
# RNA: GGGAGUUCUACAGUCCGACGAUCUGCCCAGGACGCACCUCUGCCUAAGGGGGCAGACUUGAUAGAGGAGGCUGCCAGCCGUAUAGUGGAUGCUGUCAUCGAACAAGUCAAGGCCGCUGGAGCACUGCUUACUGAGGGGGAGGCCAACAGAGGAUUGAGCAUCA
# B22: chr6:138432586:138432687:-|CDS|ENSG00000135540|unk|total|mutant (ssRNA)
# RNA: GGGAGUUCUACAGUCCGACGAUCGGAGCCCUGGGAAUACAAAUCCUCAGGUAAUGGAAGGGCAUCCCCCCUGAAGCCGCAUUCCGCAACUCCUGGCUAUUCCACUCCCACAAGUAACAUGAGCAGCUGCAGUUUGGACCAAACCAACAGAGGAUUGAGCAUCA
# Biological target: MSI1 full-length (mouse, UniProt Q61474 1-362)
# Experiment: nsRBNS (natural sequence RNA bind-n-seq); RBNS binding buffer (assumed for nsRBNS): 25 mM Tris pH 7.5, 150 mM KCl, 3 mM MgCl2, 0.01% Triton X-100, 500 ug/ml BSA, 20 U/ml SUPERase-In, 4 C; UNK is unkempt and MSI1 is Musashi-1; names of the RNAs are library labels; protein concentration not given here; high values mean tight binding
# UniProt Q61474, sequence (Q61474 whole entry): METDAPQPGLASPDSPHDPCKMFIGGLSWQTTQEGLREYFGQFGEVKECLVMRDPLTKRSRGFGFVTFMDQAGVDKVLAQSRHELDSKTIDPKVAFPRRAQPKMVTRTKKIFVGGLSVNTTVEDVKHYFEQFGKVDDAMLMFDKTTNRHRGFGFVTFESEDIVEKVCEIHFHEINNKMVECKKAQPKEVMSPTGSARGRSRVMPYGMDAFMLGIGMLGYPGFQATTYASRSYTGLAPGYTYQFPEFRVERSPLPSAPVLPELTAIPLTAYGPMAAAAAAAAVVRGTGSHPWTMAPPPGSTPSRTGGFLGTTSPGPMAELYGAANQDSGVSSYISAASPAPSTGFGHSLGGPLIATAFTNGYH
row,Binder,binding signal
1,B1,0.401 enrichment R
2,B2,0.365 enrichment R
3,B3,0.286 enrichment R
4,B4,0.352 enrichment R
5,B5,0.56 enrichment R
6,B6,19.7 enrichment R
7,B7,0.411 enrichment R
8,B8,0.984 enrichment R
9,B9,0.567 enrichment R
10,B10,0.281 enrichment R
11,B11,5.47 enrichment R
12,B12,1.07 enrichment R
13,B13,3.62 enrichment R
14,B14,0.324 enrichment R
15,B15,0.359 enrichment R
16,B16,0.32 enrichment R
17,B17,1.01 enrichment R
18,B18,0.396 enrichment R
19,B19,0.591 enrichment R
20,B20,0.501 enrichment R
21,B21,0.676 enrichment R
22,B22,0.55 enrichment R

# Reference: publication PMC12136788
